This is one part of the list. Single values are uncertain, as repeats are few or missing.
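Also: cell number obtained by counting DAPI-stained nuclei in high-throughput microscope images with image analysis software, screen run in 1,536-well plates.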

The experiment deals with RPMI7951. In words: cell count relative to DMSO control; melanoma cells; higher = more viable cells. The note with it: library dose: low library concentration; 72 h.
On to `C#Cc1cccc(Nc2ncnc3cc(OCCOC)c(OCCOC)cc23)c1` [erlotinib] + COc1cc2c(Oc3ccc4[nH]c(C)cc4c3F)ncnc2cc1OCCCN1CCCC1 [cediranib] (first compound 0.8 µM, partner dose 0.4 µM), for which the cell count was determined as 121%.

`Clc1ccc(Nc2nnc(Cc3ccncc3)c3ccccc23)cc1` [vatalanib] + CCc1ccc(CCOc2ccc(CC3SC(=O)NC3=O)cc2)nc1 [pioglitazone] (first compound 2 µM, partner dose 2 µM): the cell count amounted to 98.3%.

`O=C(CCCCCCC(=O)Nc1ccccc1)NO` [vorinostat] + COc1cc2c(Oc3ccc4[nH]c(C)cc4c3F)ncnc2cc1OCCCN1CCCC1 [cediranib] (first compound 0.08 µM, partner dose 0.4 µM): the cell count was 92.2%.

For `Nc1cccc2c1CN(C1CCC(=O)NC1=O)C2=O` (configuration not stated) [lenalidomide] + O=C(Nc1cccc(Cl)c1)Nc1ncc(CCNc2ncnc3ccsc23)s1 [SNS314] (first compound 1 µM, partner dose 0.0008 µM), the cell count is 109%.

`Nc1cccc2c1CN(C1CCC(=O)NC1=O)C2=O` (configuration not stated) [lenalidomide] + O=C(CCCCCCC(=O)Nc1ccccc1)NO [vorinostat] (first compound 1 µM, partner dose 0.08 µM) displayed a cell count of 102%.

Consider `COCC[n+]1c2c(n(Cc3cnccn3)c1C)C(=O)c1ccccc1C2=O` + COc1cc(Nc2ncc(F)c(Nc3ccc4c(n3)NC(=O)C(C)(C)O4)n2)cc(OC)c1OC [Tamatinib] (first compound 0.0004 µM, partner dose 0.4 µM), for which the cell count was determined as 77.1%.

With `O=C(CCCCCCC(=O)Nc1ccccc1)NO` [vorinostat] + O=C(O)c1ccc(-c2c[nH]c3ncc(-c4ccccc4)cc23)cc1C1CCCC1 [GSK650394] (first compound 0.08 µM, partner dose 0.16 µM), the cell count turned out to be 99.6%.

Take `Clc1ccc(Nc2nnc(Cc3ccncc3)c3ccccc23)cc1` [vatalanib] + O=C(O)C(=O)Nc1sc2c(c1C(=O)O)CCNC2 [TCS401] (first compound 2 µM, partner dose 1.66667 µM): the cell count is 101%.

Turning to `Clc1ccc(Nc2nnc(Cc3ccncc3)c3ccccc23)cc1` [vatalanib] + COc1ccc(COc2ccc(Cc3cnc(N)nc3N)cc2OC)cc1 [GW2580] (first compound 2 µM, partner dose 1 µM), the cell count was found to be 82.2%.

As to `Clc1ccc(Nc2nnc(Cc3ccncc3)c3ccccc23)cc1` [vatalanib] + Oc1cc(-c2nc(-c3ccccc3)[nH]c2-c2ccncc2)ccc1Cl [L779450] (first compound 2 µM, partner dose 0.2 µM), the cell count worked out at 98.3%.

`Clc1ccc(Nc2nnc(Cc3ccncc3)c3ccccc23)cc1` [vatalanib] + O=C(O)c1ccc(-c2c[nH]c3ncc(-c4ccccc4)cc23)cc1C1CCCC1 [GSK650394] (first compound 2 µM, partner dose 0.16 µM): the cell count turned out to be 81.5%.

`OCc1c[nH]c2ccccc12` [Indole-3-carbinol] + Cc1cc([N+](=O)[O-])ccc1NS(=O)(=O)c1cc(Cl)ccc1Cl [FH535] (first compound 0.8 µM, partner dose 1 µM) showed a cell count of 110%.

`Clc1ccc(Nc2nnc(Cc3ccncc3)c3ccccc23)cc1` [vatalanib] + CC(C)(C)c1cnc(CSc2cnc(NC(=O)C3CCNCC3)s2)o1 [SNS-032] (first compound 2 µM, partner dose 0.01 µM) returned a cell count of 70%.

The compound `O=C(CCCCCCC(=O)Nc1ccccc1)NO` [vorinostat] + C[C@@H]1CCN(C(=O)CC#N)C[C@@H]1N(C)c1ncnc2[nH]ccc12 [CP690550] (first compound 0.08 µM, partner dose 1 µM) returned a cell count of 81.9%.

Compound `Cn1c(Nc2ccc(C(F)(F)F)cc2)nc2cc(Oc3ccnc(-c4ncc(C(F)(F)F)[nH]4)c3)ccc21` + O=C(O)c1ccc(-c2c[nH]c3ncc(-c4ccccc4)cc23)cc1C1CCCC1 [GSK650394] (first compound 0.08 µM, partner dose 0.16 µM) came in with a cell count of 61.6%.

On to `OCc1c[nH]c2ccccc12` [Indole-3-carbinol] + CCN(CC)CCCCNc1ncc2cc(-c3cc(OC)cc(OC)c3)c(NC(=O)NC(C)(C)C)nc2n1 [PD173074] (first compound 0.8 µM, partner dose 0.1 µM), for which the cell count was found to be 106%.

As for `Clc1ccc(Nc2nnc(Cc3ccncc3)c3ccccc23)cc1` [vatalanib] + O=C(Nc1ccccc1)c1cc([N+](=O)[O-])ccc1Cl [GW9662] (first compound 2 µM, partner dose 2 µM), the cell count worked out at 82%.

In turn, `Cn1c(Nc2ccc(C(F)(F)F)cc2)nc2cc(Oc3ccnc(-c4ncc(C(F)(F)F)[nH]4)c3)ccc21` + C=CCn1c(=O)c2cnc(Nc3ccc(N4CCN(C)CC4)cc3)nc2n1-c1cccc(C(C)(C)O)n1 [MK1775] (first compound 0.08 µM, partner dose 0.02 µM) displayed a cell count of 53.9%.

As to `OCc1c[nH]c2ccccc12` [Indole-3-carbinol] + CN(C)S(=O)(=O)c1ccc2c(c1)/C(=C/c1cc3c([nH]1)CCCC3)C(=O)N2 [SU6656] (first compound 0.8 µM, partner dose 0.4 µM), the cell count was determined as 106%.

For the compound `COCC[n+]1c2c(n(Cc3cnccn3)c1C)C(=O)c1ccccc1C2=O` + NC(=O)Nc1cc(-c2cccc(F)c2)sc1C(=O)N[C@H]1CCCNC1 [AZD7762] (first compound 0.0004 µM, partner dose 0.02 µM), the cell count was 61.4%.

`Nc1cccc2c1CN(C1CCC(=O)NC1=O)C2=O` (configuration not stated) [lenalidomide] + O=C(O)c1ccc(-c2c[nH]c3ncc(-c4ccccc4)cc23)cc1C1CCCC1 [GSK650394] (first compound 1 µM, partner dose 0.16 µM) yielded a cell count of 110%.

In the case of `COCC[n+]1c2c(n(Cc3cnccn3)c1C)C(=O)c1ccccc1C2=O` + Cn1cncc1[C@@](N)(c1ccc(Cl)cc1)c1ccc2c(c1)c(-c1cccc(Cl)c1)cc(=O)n2C [tipifarnib] (first compound 0.0004 µM, partner dose 0.01 µM), the cell count is 79.9%.
